# Measurements reported in the supplement of paper PMC9135407.
# “And” between values parts separate entries of the source, which are not always exact repeats. Equal values may be shown once. Where a name gives a salt, the structure may show the parent alone. Hit rate of the full screen: of about 5,800 compounds, about 620 (11%) showed activity.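 How the source made its calls: active = score above a cut-off or among the top three wells of a plate; in these data no inactive exceeds 0.85.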 The entries are a selection whose mix differs from that of the whole data set.
# Test system: primary human hepatic stellate cells (donor 1)
# Assay: scaled lipid accumulation score (0 = DMSO-like, 1 = nortriptyline-like); higher = stronger HSC inactivation (lipid re-accumulation), active = hit call of the paper
# Settings: 48 h
# [1] = library stock concentration: 1 mM
# [2] = library stock concentration: 3.33 mM
# [3] = library stock concentration: 10 mM
# [4] = library stock concentration: 80 uM
# [5] = library stock concentration: 400 uM
# [6] = library stock concentration: 2 mM
structure (smiles),measurement,setting,value
N.N.O=C([O-])C[O-].[Pt+2] [Nedaplatin],scaled lipid accumulation score,library stock concentration: 6.6 mM,inactive: 0.028
CC/C=C\C/C=C\C/C=C\C/C=C\CCCCCCC(=O)OCC [.omega.-3 Arachidonic Acid ethyl ester],scaled lipid accumulation score,[1],inactive: ≤ 0
COC(=O)N[C@H](C(=O)N[C@@H](Cc1ccccc1)[C@@H](O)CN(Cc1ccc(-c2ccccn2)cc1)NC(=O)[C@@H](NC(=O)OC)C(C)(C)C)C(C)(C)C [Atazanavir],scaled lipid accumulation score,library stock concentration: 2.8 mM,inactive: 0.048
COC(=O)N[C@H](C(=O)N[C@@H](Cc1ccccc1)[C@@H](O)CN(Cc1ccc(-c2ccccn2)cc1)NC(=O)[C@@H](NC(=O)OC)C(C)(C)C)C(C)(C)C [Atazanavir Sulfate],scaled lipid accumulation score,[2],inactive: ≤ 0
same,scaled lipid accumulation score,[3],inactive: ≤ 0
COC(=O)Nc1ccc(-c2nc(N3CCOCC3)c3cnn(C4CCN(C(=O)OC)CC4)c3n2)cc1,scaled lipid accumulation score,[2],inactive: ≤ 0
same,scaled lipid accumulation score,[3],inactive: ≤ 0
CCCCCCCCCC[Si](C)(C)CCC(=O)NC(Cc1ccc(C)cc1)c1ccccc1 (stereo unspecified) [Sandoz 58-035],scaled lipid accumulation score,[3],inactive: ≤ 0
CCCCCCCCCCCC(=O)CC(=O)N[C@H]1CCOC1=O [N-3-oxo-tetradecanoyl-L-Homoserine lactone],scaled lipid accumulation score,[1],inactive: ≤ 0
CNC(=O)c1c(F)cccc1Nc1nc(Nc2cc3c(cc2OC)CCN3C(=O)CN(C)C)nc2[nH]ccc12,scaled lipid accumulation score,[2],active: 0.98
OC(CC1c2ccccc2-c2cncn21)C1CCCCC1 (stereo unspecified),scaled lipid accumulation score,[2],inactive: ≤ -0.009
same,scaled lipid accumulation score,[3],inactive: 0.209
COc1ccc(C[C@H](N)C(=O)N[C@H]2[C@@H](O)[C@H](n3cnc4c(N(C)C)ncnc43)O[C@@H]2CO)cc1 [Puromycin hydrochloride],scaled lipid accumulation score,[3],inactive: 0.352
COc1ccc(C[C@H](N)C(=O)N[C@H]2[C@@H](O)[C@H](n3cnc4c(N(C)C)ncnc43)O[C@@H]2CO)cc1 [Puromycin dihydrochloride],scaled lipid accumulation score,,inactive: 0.211
COc1ccc(C[C@H](N)C(=O)N[C@H]2[C@@H](O)[C@H](n3cnc4c(N(C)C)ncnc43)O[C@@H]2CO)cc1 [Puromycin 2HCl],scaled lipid accumulation score,[2],inactive: 0.16
same,scaled lipid accumulation score,[3],inactive: 0.281
COc1ccc(C[C@H](N)C(=O)N[C@H]2[C@@H](O)[C@H](n3cnc4c(N(C)C)ncnc43)O[C@@H]2CO)cc1,scaled lipid accumulation score,library stock concentration: 9.4 mM,inactive: 0.412
CCCCC/C=C/CCC(=O)N[C@H]1[C@H](Oc2c3cc4cc2Oc2ccc(cc2Cl)[C@@H](O[C@@H]2O[C@H](CO)[C@@H](O)[C@H](O)[C@H]2NC(C)=O)[C@@H]2NC(=O)[C@H](NC(=O)[C@@H]4NC(=O)[C@H]4NC(=O)C(Cc5ccc(c(Cl)c5)O3)NC(=O)[C@H](N)c3ccc(O)c(c3)Oc3cc(O)cc4c3)c3ccc(O)c(c3)-c3c(OC4O[C@H](CO)[C@@H](O)[C@H](O)[C@@H]4O)cc(O)cc3[C@@H](C(=O)O)NC2=O)O[C@H](CO)[C@@H](O)[C@@H]1O (stereo partly specified) [Teicoplanin [a(2-1) shown]],scaled lipid accumulation score,library stock concentration: 1.1 mM,inactive: ≤ 0
[O-][n+]1cccc(CO)c1,scaled lipid accumulation score,[3],inactive: ≤ 0
COCc1nc2c([nH]1)c(=O)n(C)c(=O)n2CC(C)C [8-Methoxymethyl-3-isobutyl-1-methylxanthine],scaled lipid accumulation score,[3],inactive: 0.155
COCc1nc2c([nH]1)c(=O)n(C)c(=O)n2CC(C)C [8-methoxymethyl-IBMX],scaled lipid accumulation score,library stock concentration: 18.8 mM,inactive: 0.036
NC(=O)OCC(COC(N)=O)c1ccccc1 [Felbamate],scaled lipid accumulation score,[2],inactive: ≤ 0
same,scaled lipid accumulation score,[3],inactive: ≤ 0 and inactive: 0.1
CCC[S+]([O-])c1ccc2[nH]c(NC(=O)OC)nc2c1 (stereo unspecified) [Ricobendazole],scaled lipid accumulation score,library stock concentration: 7.1 mM,inactive: ≤ 0
CCC[S+]([O-])c1ccc2[nH]c(NC(=O)OC)nc2c1 (stereo unspecified) [Albendazole Oxide],scaled lipid accumulation score,[2],inactive: ≤ 0
same,scaled lipid accumulation score,[3],inactive: ≤ 0
C[C@H]1NC(=O)NC1=O [Methylhydantoin-5-(D)],scaled lipid accumulation score,,inactive: ≤ 0
Clc1ccc2c(c1)C(N1CCNCC1)=Nc1ccccc1O2 [Amoxapine],scaled lipid accumulation score,,active: 0.863
Cc1ccnc(NS(=O)(=O)c2ccc(N)cc2)n1 [Sulfamerazine],scaled lipid accumulation score,,inactive: ≤ 0
same,scaled lipid accumulation score,[2],inactive: ≤ 0
same,scaled lipid accumulation score,library stock concentration: 7.6 mM,inactive: ≤ 0
same,scaled lipid accumulation score,[3],inactive: ≤ -0.001 and inactive: ≤ 0
N=C(N)NCc1cccc(I)c1 [Iobenguane sulfate],scaled lipid accumulation score,,inactive: ≤ 0
"CCCCS(=N)(=O)CCC(N)C(=O)O (racemic) [DL-Buthionine-[S,R]-sulfoximine]",scaled lipid accumulation score,[3],inactive: ≤ 0
Cl.N#CC1=C(N)NC(=C2C(=O)C=CC=C2OCC2CC2)C=C1C1CCNCC1,scaled lipid accumulation score,[3],active: 1.09
CN(C)CCOc1ccc(-c2nc(-c3ccncc3)c(-c3ccc4c(c3)CC/C4=N\O)[nH]2)cc1,scaled lipid accumulation score,[4],inactive: 0.074
same,scaled lipid accumulation score,[5],inactive: 0.325 and inactive: 0.619
same,scaled lipid accumulation score,[6],inactive: 0.7 and inactive: 0.684
same,scaled lipid accumulation score,[3],inactive: 0.476 and inactive: 0.423 and inactive: 0.307
CN(C)CCCSC(=N)N [Dimaprit dihydrochloride],scaled lipid accumulation score,,inactive: ≤ 0
same,scaled lipid accumulation score,[3],inactive: ≤ 0
Cl.O[C@H](CNC[C@@H](O)[C@H]1CCc2cc(F)ccc2O1)[C@@H]1CCc2cc(F)ccc2O1 [Nebivolol hydrochloride],scaled lipid accumulation score,[3],active: 0.861
C[C@H](Cc1cc2c(c(C(N)=O)c1)N(CCCO)CC2)NCCOc1ccccc1OCC(F)(F)F [Silodosin],scaled lipid accumulation score,[2],inactive: ≤ 0
same,scaled lipid accumulation score,[3],inactive: ≤ 0
Cc1onc(-c2c(F)cccc2Cl)c1C(=O)N[C@@H]1C(=O)N2[C@@H]1SC(C)(C)[C@@H]2C(=O)O [Flucloxacillin sodium],scaled lipid accumulation score,,inactive: ≤ 0
C/C(=C\C(=O)Nc1ccccc1C(=O)O)c1ccc2ccccc2c1,scaled lipid accumulation score,[2],inactive: 0.029
same,scaled lipid accumulation score,[3],inactive: ≤ 0
O=C(c1ccc(/C=C/c2n[nH]c3ccccc23)cc1)N1CCNCC1,scaled lipid accumulation score,[4],inactive: ≤ -0.016
same,scaled lipid accumulation score,[5],inactive: ≤ -0.016
same,scaled lipid accumulation score,[6],inactive: ≤ -0.016
same,scaled lipid accumulation score,[2],inactive: 0.101
same,scaled lipid accumulation score,[3],inactive: 0.67
Cc1ccc(-n2sc(=O)n(Cc3ccc(F)cc3)c2=O)cc1,scaled lipid accumulation score,[2],inactive: 0.21
same,scaled lipid accumulation score,[3],inactive: 0.724
O=C(NCCN1CCOCC1)c1ccc(Cl)cc1 [4-Chloro-N-(2-morpholin-4-yl-ethyl)-benzamide],scaled lipid accumulation score,[3],inactive: ≤ 0
O=C(NCCN1CCOCC1)c1ccc(Cl)cc1 [Moclobemide],scaled lipid accumulation score,,inactive: 0.059
same,scaled lipid accumulation score,[3],inactive: 0.047
O=C(NCCN1CCOCC1)c1ccc(Cl)cc1,scaled lipid accumulation score,[2],inactive: ≤ 0
same,scaled lipid accumulation score,[3],inactive: ≤ 0
Cc1cc(Cl)ccc1OCCCC(=O)NO [Droxinostat],scaled lipid accumulation score,[2],inactive: ≤ 0
same,scaled lipid accumulation score,[3],inactive: ≤ 0 and inactive: 0.26
O=C1OC(O)C(c2cc3ccccc3s2)=C1Br (stereo unspecified),scaled lipid accumulation score,[1],inactive: 0.04
O=C(O)c1ccc(S(=O)(=O)N(Cl)Cl)cc1 [Halazone],scaled lipid accumulation score,[3],inactive: ≤ 0
O=C(Oc1ccccc1C(=O)O)c1ccccc1O [Salsalate],scaled lipid accumulation score,library stock concentration: 7.7 mM,inactive: ≤ -0.001
O=C(Oc1ccccc1C(=O)O)c1ccccc1O [Sasapyrine],scaled lipid accumulation score,[2],inactive: ≤ 0
same,scaled lipid accumulation score,[3],inactive: ≤ -0.001
COc1c(C)c2c(c(O)c1C/C=C(\C)CCC(=O)O)C(=O)OC2 [Mycophenolic acid],scaled lipid accumulation score,,inactive: ≤ 0
same,scaled lipid accumulation score,[2],inactive: ≤ 0
same,scaled lipid accumulation score,library stock concentration: 6.2 mM,inactive: ≤ -0.006 and inactive: ≤ 0
same,scaled lipid accumulation score,[3],inactive: ≤ 0 and inactive: 0.017
same,scaled lipid accumulation score,library stock concentration: 15.6 mM,inactive: ≤ -0.012
NS(=O)(=O)c1cc(Cl)c(Cl)c(S(N)(=O)=O)c1 [Dichlorphenamide],scaled lipid accumulation score,,inactive: ≤ 0
same,scaled lipid accumulation score,[2],inactive: 0.061
same,scaled lipid accumulation score,[3],inactive: ≤ 0
CCOC(=O)C1=C(N)Oc2ccc(Br)cc2[C@H]1[C@H](C#N)C(=O)OCC,scaled lipid accumulation score,[3],active: 1.15
CS(=O)(=O)c1ccc(-c2cnc(N)c(C(=O)Nc3ccccc3)n2)cc1,scaled lipid accumulation score,[4],inactive: 0.017
same,scaled lipid accumulation score,[5],inactive: ≤ 0
same,scaled lipid accumulation score,[6],inactive: ≤ 0
same,scaled lipid accumulation score,[2],inactive: 0.225
same,scaled lipid accumulation score,[3],inactive: 0.489
CCCCCNC(=N)N/N=C/c1c[nH]c2ccc(OC)cc12,scaled lipid accumulation score,[3],inactive: 0.13
CCCCCNC(=N)N/N=C/c1c[nH]c2ccc(OC)cc12 [Tegaserod],scaled lipid accumulation score,[3],inactive: ≤ -0.027
CCCCCNC(=N)N/N=C/c1c[nH]c2ccc(OC)cc12 [Tegaserod maleate],scaled lipid accumulation score,[3],inactive: ≤ -0.027
CCCCC/C=C\C/C=C\CC/C=C\CCCC(=O)OCC [Pinolenic Acid ethyl ester],scaled lipid accumulation score,[1],inactive: ≤ 0
CCN1CCCC(OC(=O)C(c2ccccc2)c2ccccc2)C1 (stereo unspecified) [Piperidolate hydrochloride],scaled lipid accumulation score,,inactive: 0.181
same,scaled lipid accumulation score,[3],inactive: 0.175
O=C(O)C1=CO[C@@H](O[C@@H]2O[C@H](CO)[C@@H](O)[C@H](O)[C@H]2O)[C@@H]2C(CO)=CC[C@H]12 [Geniposidic acid],scaled lipid accumulation score,[2],inactive: 0.014
same,scaled lipid accumulation score,[3],inactive: 0.021
Nc1ccc(C(=O)O)cc1 [Potassium p-aminobenzoate],scaled lipid accumulation score,[3],inactive: ≤ 0
Clc1ccc(C(c2ccc(Cl)cc2)[n+]2ccn(CC(OCc3ccc(Cl)cc3Cl)c3ccc(Cl)cc3Cl)c2)cc1 (stereo unspecified) [Calmidazolium chloride],scaled lipid accumulation score,[3],inactive: 0.037
CC(=O)N(OCc1ccccc1)[C@H]1c2cc(C#N)ccc2OC(C)(C)[C@H]1O,scaled lipid accumulation score,[3],inactive: ≤ 0
C[C@H]1O[C@@H](n2cc(F)c(=O)[nH]c2=O)[C@H](O)[C@@H]1O [5-fluoro-5'-deoxyuridine],scaled lipid accumulation score,[3],inactive: ≤ -0.07
C[C@H]1O[C@@H](n2cc(F)c(=O)[nH]c2=O)[C@H](O)[C@@H]1O [Doxifluridine],scaled lipid accumulation score,[2],inactive: ≤ 0
same,scaled lipid accumulation score,library stock concentration: 8.1 mM,inactive: 0.021
same,scaled lipid accumulation score,[3],inactive: ≤ 0
CC(C)(C)c1nc(-c2cccc(NS(=O)(=O)c3c(F)cccc3F)c2F)c(-c2ccnc(N)n2)s1 [Dabrafenib],scaled lipid accumulation score,[4],inactive: ≤ -0.016
same,scaled lipid accumulation score,[5],inactive: ≤ -0.016
same,scaled lipid accumulation score,[6],inactive: ≤ -0.016
same,scaled lipid accumulation score,[3],inactive: 0.02
CC(C)(C)c1nc(-c2cccc(NS(=O)(=O)c3c(F)cccc3F)c2F)c(-c2ccnc(N)n2)s1,scaled lipid accumulation score,[2],inactive: ≤ 0
same,scaled lipid accumulation score,[3],inactive: ≤ 0
